Test results taken from PMC9880023.
Like-named read-outs stand apart in the source and are kept apart here. Results are given in words; binding and its absence hold for the method and conditions named. Some entries that bind do so weakly or less than the wild type. For part of these data: Where a sequence is shown, tags or fusion partners need not be part of it. Each block holds one molecule with its values, some of them ahead of it.

By UniProt entry, the sequences of proteins in these tests, tags left out. Residues count along the entry.
UniProt E9PUN2, residues 47-660: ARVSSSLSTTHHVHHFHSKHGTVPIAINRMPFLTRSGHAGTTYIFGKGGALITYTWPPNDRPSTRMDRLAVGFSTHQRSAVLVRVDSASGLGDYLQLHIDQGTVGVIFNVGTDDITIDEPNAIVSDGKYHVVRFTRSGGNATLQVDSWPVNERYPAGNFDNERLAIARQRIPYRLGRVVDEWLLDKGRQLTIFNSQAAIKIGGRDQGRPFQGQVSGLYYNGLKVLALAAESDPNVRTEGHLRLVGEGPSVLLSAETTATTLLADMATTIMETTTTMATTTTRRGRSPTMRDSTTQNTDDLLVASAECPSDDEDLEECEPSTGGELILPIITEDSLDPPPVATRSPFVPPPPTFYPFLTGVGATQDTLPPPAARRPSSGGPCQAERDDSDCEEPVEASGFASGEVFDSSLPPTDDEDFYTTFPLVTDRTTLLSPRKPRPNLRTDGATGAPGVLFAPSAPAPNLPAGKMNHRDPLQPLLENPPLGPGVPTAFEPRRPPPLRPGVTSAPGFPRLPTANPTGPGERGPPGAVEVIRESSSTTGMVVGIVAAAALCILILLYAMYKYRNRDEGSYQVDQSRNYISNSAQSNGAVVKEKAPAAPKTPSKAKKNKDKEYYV
UniProt P0DI97, residues 47-468: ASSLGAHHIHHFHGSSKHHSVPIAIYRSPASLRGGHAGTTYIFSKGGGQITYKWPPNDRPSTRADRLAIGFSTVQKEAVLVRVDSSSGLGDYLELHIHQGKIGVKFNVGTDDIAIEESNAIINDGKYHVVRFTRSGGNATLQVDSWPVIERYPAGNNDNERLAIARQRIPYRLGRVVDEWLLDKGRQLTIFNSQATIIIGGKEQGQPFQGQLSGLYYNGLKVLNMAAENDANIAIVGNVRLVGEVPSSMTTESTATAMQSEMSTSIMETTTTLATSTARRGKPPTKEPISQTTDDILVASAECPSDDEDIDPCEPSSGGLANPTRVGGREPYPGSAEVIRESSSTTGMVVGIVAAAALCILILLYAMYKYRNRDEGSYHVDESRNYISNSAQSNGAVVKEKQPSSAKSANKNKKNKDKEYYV
UniProt Q8C985, residues 36-567: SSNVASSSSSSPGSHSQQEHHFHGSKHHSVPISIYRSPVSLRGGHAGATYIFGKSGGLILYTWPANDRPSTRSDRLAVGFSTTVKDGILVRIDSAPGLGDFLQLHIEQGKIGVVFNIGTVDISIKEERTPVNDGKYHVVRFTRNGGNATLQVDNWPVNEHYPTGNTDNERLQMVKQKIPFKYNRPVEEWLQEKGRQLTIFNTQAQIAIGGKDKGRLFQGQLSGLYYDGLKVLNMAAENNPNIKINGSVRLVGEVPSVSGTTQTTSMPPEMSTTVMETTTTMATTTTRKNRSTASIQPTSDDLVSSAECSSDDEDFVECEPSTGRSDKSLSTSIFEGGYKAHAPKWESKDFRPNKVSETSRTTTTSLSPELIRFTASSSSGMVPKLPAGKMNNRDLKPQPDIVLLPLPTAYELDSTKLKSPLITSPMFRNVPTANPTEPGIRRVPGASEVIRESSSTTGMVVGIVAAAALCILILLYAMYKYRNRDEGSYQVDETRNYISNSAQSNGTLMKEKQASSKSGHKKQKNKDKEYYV
UniProt Q9EPR5, residues 52-1077: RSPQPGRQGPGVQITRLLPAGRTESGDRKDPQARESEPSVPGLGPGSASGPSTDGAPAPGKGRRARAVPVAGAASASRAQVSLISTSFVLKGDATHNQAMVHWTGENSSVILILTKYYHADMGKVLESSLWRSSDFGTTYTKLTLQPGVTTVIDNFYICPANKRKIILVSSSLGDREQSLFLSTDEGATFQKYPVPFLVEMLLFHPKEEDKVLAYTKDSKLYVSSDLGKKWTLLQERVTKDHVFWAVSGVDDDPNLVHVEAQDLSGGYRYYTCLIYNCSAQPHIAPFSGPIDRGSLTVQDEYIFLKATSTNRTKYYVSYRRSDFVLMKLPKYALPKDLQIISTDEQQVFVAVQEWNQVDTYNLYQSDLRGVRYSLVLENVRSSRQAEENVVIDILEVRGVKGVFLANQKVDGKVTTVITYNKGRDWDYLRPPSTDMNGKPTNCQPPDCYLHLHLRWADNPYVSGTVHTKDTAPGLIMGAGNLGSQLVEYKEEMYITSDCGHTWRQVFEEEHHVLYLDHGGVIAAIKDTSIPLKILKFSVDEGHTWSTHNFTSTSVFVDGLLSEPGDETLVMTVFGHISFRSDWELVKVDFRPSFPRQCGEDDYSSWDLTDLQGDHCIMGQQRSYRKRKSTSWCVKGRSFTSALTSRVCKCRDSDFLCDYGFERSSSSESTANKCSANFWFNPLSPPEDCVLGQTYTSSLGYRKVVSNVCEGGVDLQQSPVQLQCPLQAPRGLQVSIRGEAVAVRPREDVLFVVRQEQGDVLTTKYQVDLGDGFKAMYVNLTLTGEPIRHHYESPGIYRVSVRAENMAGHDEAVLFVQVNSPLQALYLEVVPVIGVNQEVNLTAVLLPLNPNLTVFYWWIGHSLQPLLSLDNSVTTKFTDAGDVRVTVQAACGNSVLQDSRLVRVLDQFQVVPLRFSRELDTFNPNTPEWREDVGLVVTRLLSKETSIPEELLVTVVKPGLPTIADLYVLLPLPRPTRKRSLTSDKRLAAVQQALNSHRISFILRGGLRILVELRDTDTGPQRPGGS

Key:
Assay in all cases: cell surface-binding assay (fluorescence microscopy); purified Fc-fusion protein (SorCS1-Fc and SorCS2-Fc at 1 µM) applied to transfected COS-7 cells in ECS/BSA for 1 h at 4°C; bound Fc immunostained without permeabilisation, normalised to surface HA; only the binder purified
[1] = biological target: HA-NRX2βS4(+), expressed on COS-7 cells (UniProt E9PUN2)
[2] = biological target: HA-NRX1βS4(+), expressed on COS-7 cells (UniProt P0DI97)
[3] = biological target: HA-NRX3βS4(+), expressed on COS-7 cells (UniProt Q8C985)
[4] = biological target: HA-NRX2βS4(+), expressed on COS-7 cells (UniProt E9PUN2); remark: listed apart in the source
[5] = biological target: HA-NRX1βS4(+), expressed on COS-7 cells (UniProt P0DI97); remark: listed apart in the source
[6] = biological target: HA-NRX3βS4(+), expressed on COS-7 cells (UniProt Q8C985); remark: listed apart in the source

binding [1]: binds weakly | binding [2]: binds | binding [3]: binds weakly
Molecule: SorCS2 ectodomain fused to human IgG Fc (SorCS2-Fc) (from UniProt Q9EPR5 52-1077) (Fc fusion)

binding [4]: binds | binding [5]: binds | binding [6]: no binding (tested: 1 µM)
B1: SorCS1 ectodomain tagged with human immunoglobulin Fc region (SorCS1-Fc) (Fc fusion, UniProt Q9JLC4 34-1098)
chain: SLSCCPPQHPSSTPRRTLTPRGFPHPGPLGRAPATPPPLFMRPLFAVAPGDRALFLERAGGSRVSVATAARSGRRRRSGTEPEKIEPGEGASRSRRDMLKDGGQQGLGTGARDPGKATRFRMEELRLTSTTFALTGDSAHNQAMVHWSGHNSSVILILTKLYDYNLGSITESSLWRSTDYGTTYEKLNDKVGLKTILSYLYVCPTNKCKIMLLTDPEIESSLLISSDEGATYQKYRLNFYLQSLLFHPKQEDWILAYSQDQKLYSSAEFGRRWQLIQESVVPNRFYWSVMGSSKEPDLVHLEARTVDGHSIYLTCRMQNCTEANRNKPFPGYIDPDSLIVQDDYVFVQLTSGGRPHYYVSYRRSPFAQMKLPKYALPKDMHVISTDENQVFAAVQEWNQNDTYNLYISDTRGVYFTLALENVRSSRGPEGNVMIDLYEVAGIKGMFLANKKIDNQVKTFITYNKGRDWRLLQAPDADLRGDPVHCLLPYCSLHLHLKVSENPYTSGIIASRDTAPSIIVASGNIGSELSDSDISMFVSSDAGNTWRQIFEEEHSILYLDQGGVLVAMKHTSLPIRHLWLSFDEGRSWSKYSFTSIPLFVDGVLGEPGEETLIMTVFGHFSHRSEWQLVKVDYKSIFDRRCAEEDYRPWQLHSQGEACIMGAKRIYKKRKSERKCMQKYAGAMESEPCVCTEADFDCDYGYERHSNGQCLPAFWFNPSSLSKDCSLGQSYLNSAGYRKVVSNNCTDGVREQYTAKPQKCPGKAPRGLRIVTADGKLTAEQGHNVTLMVQLEEGDVQRTLIQVDFGDGIAVSYVNLSSMEDGIKHVYQNVGIFRVTVQVDNSLGSDSAVLYLHVTCPLEHVHLSLPFVTTKNKEVNATAVLWPSQVGTLTYVWWYGNNTEPLITLEGSISFKFTSEGMNTITVQVSAGNAILQDTKTIAVYEEFRSLRLAFSPNLDDYNPDIPEWRRDISRVIKKSLVEATGIPSQHILVAVLPGLPTAAELFVLPYQDGTRENKRSPEDLEQISEVLIHKLNQNLVHFELKPGVQVLVHAAHLTAAPLVDLTPTHS
